Test results published in PMC8427951, “Design, synthesis, and preliminary evaluation of a potential synthetic opioid rescue agent” (Journal of Biomedical Science, 2021).

Biological target: human κ opioid receptor (KOR) (Homo sapiens, UniProt P41145)
Test: cell-based
Set-up: host or cells: cAMP Hunter CHO-K1
Settings: for KOR antagonism Imax (degree of antagonism): versus EC90 of U50,488H, normalized to nor-BNI, mean ± SEM

Chain of UniProt P41145 (P41145 whole entry): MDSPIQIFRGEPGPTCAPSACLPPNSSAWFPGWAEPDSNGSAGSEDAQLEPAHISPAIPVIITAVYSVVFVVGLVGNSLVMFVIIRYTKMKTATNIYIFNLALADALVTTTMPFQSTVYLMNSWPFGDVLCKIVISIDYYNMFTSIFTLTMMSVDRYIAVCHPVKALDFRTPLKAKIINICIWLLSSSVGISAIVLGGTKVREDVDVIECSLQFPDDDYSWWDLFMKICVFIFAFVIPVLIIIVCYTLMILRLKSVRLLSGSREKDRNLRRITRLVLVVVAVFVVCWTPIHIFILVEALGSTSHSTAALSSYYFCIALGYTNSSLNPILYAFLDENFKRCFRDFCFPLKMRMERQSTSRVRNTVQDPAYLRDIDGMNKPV

Row | SMILES | IC50 [nM] | KOR antagonism Imax (degree of antagonism) [%]
1 | CCC(=O)O[C@@]12CCC(=O)[C@@H]3Oc4c(O)ccc5c4[C@@]31CCN(CC1CC1)[C@@H]2C5 [Compound 14] | 8.15 ± 1.1 | 49.27 ± 11.54
2 | CCCO[C@@]12CCC(=O)[C@@H]3Oc4c(O)ccc5c4[C@@]31CCN(CC1CC1)[C@@H]2C5 [Compound 20] | 8.7 ± 1.89 | 46.68 ± 2.95
3 | C=CCO[C@@]12CCC(=O)[C@@H]3Oc4c(O)ccc5c4[C@@]31CCN(CC1CC1)[C@@H]2C5 [Compound 21] | 10.7 ± 4.48 | 62.72 ± 18.41
4 | O=C1CC[C@@]2(OC[C@H](O)CO)[C@H]3Cc4ccc(O)c5c4[C@@]2(CCN3CC2CC2)[C@H]1O5 [Compound 22] | 33.7 ± 3.77 | 84.97 ± 6.39
5 | C=CCOC12CCC(=C)C3Oc4c(O)ccc5c4C31CCN(CC1CC1)C2C5 (centres unmarked) [Compound 28] | 8.54 ± 3.54 | 47.32 ± 12.19
6 | C=C1CC[C@@]2(OCCC)[C@H]3Cc4ccc(O)c5c4[C@@]2(CCN3CC2CC2)[C@H]1O5 [Compound 29] | 4.49 ± 2.02 | 46.84 ± 16.34
7 | C=C1CC[C@@]2(OC[C@H](O)CO)[C@H]3Cc4ccc(O)c5c4[C@@]2(CCN3CC2CC2)[C@H]1O5 [Compound 30] | 8.75 ± 2.05 | 89.12 ± 0.69
